Drawing on the supplement of paper PMC4967469, this text covers AUC and IC50 for nine cell lines.

Lines with a small IC50 respond at low doses; fits outside the tested doses are given as limits. For AUC the same curve is integrated over the 256-fold range of doses and scaled to a fraction; values near 1 show little effect. For part of these data: A top dose marked as inferred is not printed in the source and was worked back from the curve model. For part of these data: Where an entry number is given, a second screen of the drug exists; the two often differ.

Holding throughout (test): Viability of human cancer cell lines after 72 h of drug (GDSC screen)
Compound in one test: NCC(=O)Nc1ccc(-n2nc(C(F)(F)F)cc2-c2ccc3c(ccc4ccccc43)c2)cc1 [OSU-03012]
The note with it: top dose 16 µM; top dose inferred. The procedure: (§1)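 Human cancer cell lines in 384-well plates, medium with 10% serum, drug for 72 h over a 256-fold dose range (nine 2-fold or five 4-fold steps up to the top dose). Adherent lines were fixed and stained with the nucleic acid dye Syto60, suspension lines read with resazurin; signal relative to control wells, capped at 0 and 100%. One two-parameter sigmoid per drug and line, fitted in a mixed model over all curves with the slope shared within a line.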

Compound in the next test: C#Cc1cccc(Nc2ncnc3cc(OC)c(OCCCCCCC(=O)NO)cc23)c1 [CUDC-101]
The settings on record: top dose 5.12 µM; top dose inferred. The procedure: as §1

Compound in the next test: OC[C@H](Cc1ccccc1)Nc1nc(Oc2ccc3c(c2)CCC3)nc2c1ncn2Cc1ccc(-c2ccccc2)cc1 [QS11]
The note with it: top dose 10.24 µM. The procedure:
as §1

Compound in the next test: CC(C)(C)c1cc(NC(=O)Nc2ccc(-c3cn4c(n3)sc3cc(OCCN5CCOCC5)ccc34)cc2)no1 [AC220]
The settings on record: top dose 1.024 µM; top dose inferred. The protocol: as §1

Compound in a further test: Fc1cc(-c2ccnc(Nc3ccc(-n4cnc(N5CCOCC5)n4)cc3)n2)cc(N2CCOCC2)c1 [JNK-9L]
The note with it: top dose 5.12 µM; top dose inferred. The protocol: as §1

Compound in the next test: COc1cc(F)c(F)c(Nc2ccc(I)cc2F)c1NS(=O)(=O)C1(C[C@H](O)CO)CC1 [RDEA119]
The note with it: top dose 5 µM, top dose inferred. The protocol:
as §1

With IHH-4 (thyroid, semi-adherent), the AUC with OSU-03012 came to 0.44; with CUDC-101, 0.586; with QS11 it was 0.74; in the test with AC220, 0.993; with JNK-9L, 0.335; in the test with RDEA119 (screen: GDSC drug entry 1014), 0.489. For the same cell line, in the test with RDEA119 (screen: GDSC drug entry 1526), the AUC amounted to 0.598. For the same cell line, the 50% inhibitory concentration (IC50) is 0.709 µM with OSU-03012; 524 nM in the test with CUDC-101; 2.61 µM with QS11; more than 1020 nM with AC220; 124 nM with JNK-9L; 294 nM with RDEA119 (screen: GDSC drug entry 1014). For the same cell line, the half-inhibitory concentration (IC50) with RDEA119 (screen: GDSC drug entry 1526) came to 549 nM.

Consider KM12 (large intestine, adherent), for which the AUC in the test with OSU-03012 worked out at 0.618; with CUDC-101, 0.673; in the test with QS11 it was 0.889; with AC220 it was 0.941; with JNK-9L, 0.445; with RDEA119 (screen: GDSC drug entry 1014) it was 0.831. For the same cell line, in the test with RDEA119 (screen: GDSC drug entry 1526), the AUC turned out to be 0.931. The half-inhibitory concentration (IC50) in the test with OSU-03012 was 2.18 µM; in the test with CUDC-101 it was 1020 nM; with QS11 it was more than 10.2 µM; with AC220, more than 1020 nM; with JNK-9L, 223 nM; with RDEA119 (screen: GDSC drug entry 1014), 3540 nM. Also, the IC50 with RDEA119 (screen: GDSC drug entry 1526) is more than 5000 nM.

Take “LK-2 (lung squamous cell carcinoma, adherent)”: the AUC in the test with OSU-03012 is 0.81; with CUDC-101, 0.534; in the test with QS11, 0.965; with AC220, 0.966; in the test with JNK-9L, 0.624; in the test with RDEA119 (screen: GDSC drug entry 1014), 0.971. The AUC with RDEA119 (screen: GDSC drug entry 1526) was 0.949. Further, the concentration for half-maximal inhibition (IC50) with OSU-03012 is 7.83 µM; with CUDC-101 it was 394 nM; in the test with QS11, more than 10.2 µM; in the test with AC220, more than 1020 nM; with JNK-9L, 686 nM; with RDEA119 (screen: GDSC drug entry 1014) it was more than 5000 nM. The IC50 with RDEA119 (screen: GDSC drug entry 1526) was more than 5000 nM.

Regarding LS-411N (large intestine, adherent), the AUC with OSU-03012 was found to be 0.735; with CUDC-101, 0.424; with QS11, 0.814; in the test with AC220, 0.97; with JNK-9L, 0.418; in the test with RDEA119 (screen: GDSC drug entry 1014), 0.513. Moreover, the AUC with RDEA119 (screen: GDSC drug entry 1526) was determined as 0.507. The IC50 with OSU-03012 is 5.52 µM; with CUDC-101, 189 nM; in the test with QS11 it was 7.18 µM; with AC220 it was more than 1020 nM; in the test with JNK-9L, 181 nM; with RDEA119 (screen: GDSC drug entry 1014) it was 343 nM. In the test with RDEA119 (screen: GDSC drug entry 1526), the half-maximal inhibitory concentration (IC50) turned out to be 329 nM.

“LU-99A (large cell lung carcinoma, adherent)”: the AUC with OSU-03012 amounted to 0.805; with CUDC-101, 0.769; with QS11, 0.954; in the test with AC220, 0.986; with JNK-9L, 0.662; with RDEA119 (screen: GDSC drug entry 1526), 0.785. The IC50 with OSU-03012 is 7.97 µM; in the test with CUDC-101, 1910 nM; with QS11 it was more than 10.2 µM; with AC220, more than 1020 nM; in the test with JNK-9L, 899 nM; in the test with RDEA119 (screen: GDSC drug entry 1526), 2120 nM.

As for LoVo (large intestine, adherent), the AUC amounted to 0.454 with OSU-03012; 0.786 with CUDC-101; 0.763 in the test with QS11; 0.987 with AC220; 0.529 in the test with JNK-9L; 0.496 with RDEA119 (screen: GDSC drug entry 1014). In addition, in the test with RDEA119 (screen: GDSC drug entry 1526), the AUC was found to be 0.737. In addition, the half-maximal inhibitory concentration (IC50) was 0.748 µM with OSU-03012; 2240 nM with CUDC-101; 3.74 µM with QS11; more than 1020 nM with AC220; 384 nM with JNK-9L; 305 nM with RDEA119 (screen: GDSC drug entry 1014). Further, the 50% inhibitory concentration (IC50) with RDEA119 (screen: GDSC drug entry 1526) stood at 1500 nM.

For M14 (melanoma, adherent), the AUC worked out at 0.777 with OSU-03012; 0.677 with CUDC-101; 0.978 with QS11; 0.987 with AC220; 0.541 with JNK-9L; 0.312 in the test with RDEA119 (screen: GDSC drug entry 1526). Moreover, the IC50 is 6.82 µM in the test with OSU-03012; 1030 nM with CUDC-101; more than 10.2 µM with QS11; more than 1020 nM with AC220; 417 nM with JNK-9L; 89.7 nM in the test with RDEA119 (screen: GDSC drug entry 1526).

As to MDA-MB-157 (breast, adherent), the AUC is 0.855 in the test with OSU-03012; 0.62 in the test with CUDC-101; 0.975 with QS11; 0.981 with AC220; 0.626 with JNK-9L; 0.906 in the test with RDEA119 (screen: GDSC drug entry 1014). Besides, the AUC with RDEA119 (screen: GDSC drug entry 1526) stood at 0.985. In addition, the half-maximal inhibitory concentration (IC50) with OSU-03012 was 13.2 µM; in the test with CUDC-101 it was 691 nM; with QS11 it was more than 10.2 µM; in the test with AC220 it was more than 1020 nM; in the test with JNK-9L, 721 nM; with RDEA119 (screen: GDSC drug entry 1014) it was more than 5000 nM. In addition, in the test with RDEA119 (screen: GDSC drug entry 1526), the IC50 is more than 5000 nM.

MDA-MB-175-VII (breast, adherent): the AUC with OSU-03012 is 0.927; with CUDC-101, 0.605; with QS11, 0.985; in the test with AC220 it was 0.919; with JNK-9L it was 0.732; with RDEA119 (screen: GDSC drug entry 1526), 0.952. The 50% inhibitory concentration (IC50) with OSU-03012 is more than 16 µM; with CUDC-101, 641 nM; in the test with QS11 it was more than 10.2 µM; with AC220, more than 1020 nM; with JNK-9L, 1590 nM; in the test with RDEA119 (screen: GDSC drug entry 1526), more than 5000 nM.
